# ± gives the standard deviation of the averaged measurements. Over roughly 33,000 sequences, “E-score (dimensionless, -0.5 to 0.5)” has its median near -0.046; the highest 2% begin near 0.36. The list shows a part of the results.
# System: T1, SpTbr T-box DNA-binding domain (GST fusion)
# T1 sequence: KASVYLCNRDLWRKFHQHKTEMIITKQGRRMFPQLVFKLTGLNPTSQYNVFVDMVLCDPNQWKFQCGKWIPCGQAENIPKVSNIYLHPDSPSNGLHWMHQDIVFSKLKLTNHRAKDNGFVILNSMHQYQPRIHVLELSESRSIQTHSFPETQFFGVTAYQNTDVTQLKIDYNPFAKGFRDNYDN
# Test: PBM E-score of 8-mer (E-score (dimensionless, -0.5 to 0.5)); Tbr is Tbrain of the sea star Patiria miniata (Pm) or the sea urchin Strongylocentrotus purpuratus (Sp); higher = stronger binding preference; most listed sequences are background and not binding sites
# Conditions: the construct has about 5 more residues each side
# In short: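 Using the Universal PBM Analysis Suite, every ungapped 8-mer received an enrichment E-score averaged over duplicate arrays. Probe intensities came from double-stranded Universal Agilent oligonucleotide arrays incubated with 200 nM GST-fused Tbr T-box DNA-binding domain in PBS (pH 7.5). That protein was expressed in BL21 E. coli at 20 °C and purified by glutathione affinity chromatography.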
row,Sequence,PBM E-score of 8-mer
1,CGCAAAGC,-0.0146 ± 0.083
2,CTCCGAAA,-0.0368 ± 0.022
3,GAGATGGA,-0.0189 ± 0.069
4,AAATGAAA,-0.0939 ± 0.12
5,AGGCTTAA,-0.131 ± 0.014
6,CGTCGGAA,-0.0803 ± 0.018
7,CGACTCGA,0.138 ± 0.032
8,GACTGTGA,0.279 ± 0.0029
9,AGCCCATA,-0.157 ± 0.0018
10,CTAGATGC,-0.125 ± 0.038
11,AGGATTCC,-0.273 ± 0.054
12,GGCCGCCA,0.0406 ± 0.0027
13,CCATCTCC,-0.0172 ± 0.096
14,AGCTCTTA,-0.223 ± 0.03
15,AGGAACCT,-0.154 ± 0.021
16,ATGTTATA,-0.0933 ± 0.013
17,ATAGGCAA,-0.214 ± 0.01
18,ACTCGCTC,-0.0581 ± 0.083
19,GATTAGGA,-0.286 ± 0.01
20,CTCAGGAA,-0.12 ± 0.02
21,AGTTTAAG,-0.0915 ± 0.091
22,CTGAGACA,0.0861 ± 0.095

row,Sequence,PBM E-score of 8-mer
1,TTAAGCAA,-0.151 ± 0.02
2,CCGCGTTA,0.101 ± 0.023
3,ATCCAGTG,-0.251 ± 0.028
4,GCGCTCGA,-0.0292 ± 0.0073
5,TAATTCTA,-0.153 ± 0.018
6,CTCCTGGA,-0.0475 ± 0.01
7,GCCGGACA,-0.253 ± 0.031
8,ACGTCGGG,0.0128 ± 0.04
9,AAAAGGTT,-0.0952 ± 0.076
10,ATTCATCC,-0.234 ± 0.053
11,AGATAGTC,-0.169 ± 0.04
12,CCCTGAGG,-0.0752 ± 0.00081
13,CCATAATA,-0.0882 ± 0.037
14,CAGTGATC,0.0236 ± 0.038
15,TCTAGAGA,-0.0315 ± 0.044
16,CGTATTAG,-0.0646 ± 0.04
17,GAATTACA,-0.033 ± 0.044
18,GCGGGAAA,0.135 ± 0.0056
19,ATGTCGGA,-0.011 ± 0.048
20,GGCTGAAA,-0.173 ± 0.043
21,CTCTCGCC,0.251 ± 0.0045
22,AGATCGAA,0.0086 ± 0.046

row,Sequence,PBM E-score of 8-mer
1,CGTGACCC,0.167 ± 0.075
2,AGTGGCCG,0.0415 ± 0.0067
3,CCCATCGC,-0.0223 ± 0.091
4,GTTTCTTA,0.126 ± 0.008
5,ACGGTTAT,0.0286 ± 0.041
6,CAATGAGA,-0.141 ± 0.11
7,ACCGTCCT,-0.134 ± 0.022
8,AAATTGGA,-0.126 ± 0.061
9,ACCAGGTA,-0.0553 ± 0.093
10,AACGATTG,-0.00432 ± 0.013
11,AGGTAGTG,0.123 ± 0.044
12,CCTTGGAG,-0.1541 ± 0.00054
13,CGGAGGGA,-0.167 ± 0.056
14,GAGAAACA,0.102 ± 0.05
15,GAGTGTGA,0.478 ± 0.0052
16,CGGCCAAC,-0.105 ± 0.036
17,ATCCCTAA,-0.286 ± 0.011
18,GCAGCGGC,-0.1 ± 0.056
19,AAAGCCGC,0.14 ± 0.033
20,CACACGTA,0.356 ± 0.0042
21,CCGTTGCG,0.0553 ± 0.073
22,AACTCGGT,-0.0789 ± 0.061

row,Sequence,PBM E-score of 8-mer
1,AATGAAAT,-0.144 ± 0.068
2,TCTCTGAA,-0.155 ± 0.031
3,GCTCTACC,0.0202 ± 0.014
4,AAAAAGAA,-0.159 ± 0.025
5,AGTATCCC,-0.0802 ± 0.01
6,AACATTGT,0.114 ± 0.037
7,ACATGATG,0.172 ± 0.043
8,AATTACGG,-0.121 ± 0.08
9,ATAGAATC,-0.0935 ± 0.013
10,GTTTTTAA,-0.153 ± 0.063
11,AACCCATA,0.0674 ± 0.036
12,ACCCCTCG,0.11 ± 0.08
13,GCTCCACC,0.0333 ± 0.025
14,AGCTCAAC,-0.0474 ± 0.074
15,AGTGACTG,0.172 ± 0.0081
16,ACCGTCGG,-0.252 ± 0.038
17,ATCGCCGG,-0.086 ± 0.026
18,AGTGCTGC,0.0756 ± 0.0053
19,CAGTTATC,0.0747 ± 0.012
20,AAAATCTA,0.0815 ± 0.0069
21,AAACTCTA,-0.0434 ± 0.028
22,CAGGTTAA,-0.134 ± 0.11

row,Sequence,PBM E-score of 8-mer
1,CTATGAGA,-0.252 ± 0.033
2,ACGAGAGA,-0.106 ± 0.032
3,ATGATGGC,-0.0598 ± 0.0071
4,AGCTACAA,-0.161 ± 0.011
5,AGCGGCCA,0.0509 ± 0.027
6,CGATCCCC,0.12 ± 0.014
7,AAAATAGA,-0.358 ± 0.028
8,ATTCAGTC,-0.147 ± 0.033
9,AAATCACA,0.333 ± 0.03
10,GATGCTAC,-0.0905 ± 0.087
11,CCCGTGCC,-0.0819 ± 0.033
12,CAAAAGTG,0.257 ± 0.027
13,CGCTGTCC,-0.224 ± 0.018
14,GAGACTCC,-0.0351 ± 0.085
15,AGGAGAGA,0.00496 ± 0.029
16,GTCAAGTA,0.185 ± 0.016
17,AAAGAGTG,0.216 ± 0.048
18,CACTGCGC,0.196 ± 0.016
19,GTCCACTA,-0.1 ± 0.0077
20,AGTAAAAG,-0.0786 ± 0.051
21,CGAAAGTC,0.00178 ± 0.00011
22,AACCCAGG,-0.22 ± 0.0083

# From the supplement of paper PMC4166925
